The values below come from patent US20230203155A1 (ALMAC DISCOVERY, published 2023).

Test [1] addresses T1, human ROR2-hFc fusion protein (extracellular domain) (human).
T1 construct: Whole entry 'human ROR2-Fc (CHO)'; also called hROR2
The test is described as follows: SPR, ROR2-hFc on chip. Background: Surface plasmon resonance follows binding to a sensor surface in real time, without labels.

In test [2] the target is T2, human ROR1-hFc fusion protein (extracellular domain) (human).
T2 construct: Whole entry 'human ROR1-Fc (CHO)'; also called hROR1; huROR1-Fc
As to the kind of experiment: SPR, ROR1-hFc on chip.

In test [3] the target is T2, human ROR1-hFc fusion protein …. As to the kind of experiment: SPR, ROR1-hFc on chip. This is another data set of the same source.
Test [4] concerns the target T1, human ROR2-hFc fusion protein …. As to the kind of experiment: SPR, ROR2-hFc on chip. The source holds these as a separate data set.
For test [5], the target named is T3, human ROR1 on the surface of ROR1hi human cancer cell lines (human, UniProt Q01973 30-937).
T3 construct: whole, on cells; Cell line is named under assay; also called cell surface ROR1
The test is described as follows: flow cytometry, A549 (ROR1hi) against A427 (ROR1low) cells, PE-anti-human antibody. A general note: Flow cytometry measures light scatter and fluorescence of single cells or particles in a stream.

The target in test [6] is T2, human ROR1-hFc fusion protein …. The test is described as follows: SPR, human ROR1 ECD-Fc on chip.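 Further: SPR binding kinetics of VNAR and VNAR-Fc molecules run at a range of concentrations over immobilised target, rate and affinity constants fitted with QDat software.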

Like-named read-outs stand apart in the source and are kept apart here.

B1: hFc-P3A1 (Fc fusion)
chain: [human IgG1 Fc with changes cut from this listing]GGGGSGGGGSGGGGSGGGGSGGGGSTRVDQTPRTATKETGESLTINCVLTDTSYGLYSTSWFRKNPGTTDWERMSIGGRYVESVNKGAKSFSLRIKDLTVADSATYYCKAREARHPWLRQWYDGAGTVLTVN
notes: VNAR at C terminus of Fc; also called hFc (S252C) P3A1
For orientation: Kd means the constant that tells how readily two partners part at equilibrium. A lower Kd goes with a tighter complex. Broadly, the koff is a measure of how fast the partners let go of each other. Lower therefore signals slow dissociation. By kon is commonly meant the second-order rate constant of association. Turning to B1, the binding result in test [1] was “no binding”. Besides, in test [2], the Kd was 0.35 nM, the koff was determined as 0.000776 s⁻¹ and the kon came to 2.38e+06 M⁻¹ s⁻¹.

B2: 2V hFc (Fc fusion)
chain: TRVDQTPRTATKETGESLTINCVLTDTSYGLYSTSWFRKNPGTTDWERMSIGGRYVESVNKGAKSFSLRIKDLTVADSATYYCKAQSLAISTRSYWYDGAGTVLTVNGGGGSGGGGSGGGGS[human IgG1 Fc with changes cut from this listing]
notes: control; also called 2V hFc (S252C)
Consider B2, for which the binding result in test [3] is listed as “no binding”; in test [4] it was “no binding”; in test [5], “no binding (tested: 122 nM)”.

B3: 2V hFc-MMAE (Fc fusion)
chain: TRVDQTPRTATKETGESLTINCVLTDTSYGLYSTSWFRKNPGTTDWERMSIGGRYVESVNKGAKSFSLRIKDLTVADSATYYCKAQSLAISTRSYWYDGAGTVLTVNGGGGSGGGGSGGGGS[human IgG1 Fc with changes cut from this listing]
modifications: MC vc PAB MMAE on engineered Cys (S252C, Kabat)
notes: control conjugate; also called 2V-hFc-vcMMAE
B3: the binding result is recorded as “no binding” in test [3], “no binding” in test [4] and “no binding (tested: 122 nM)” in test [5].

B4: B1G1-hFc (Fc fusion)
chain: TRVDQSPSSLSASVGDRVTITCVLTGANYGLASTYWYRKNPGSSNKEQISISGRYSESVNKGTKSFTLTISSLQPEDSATYYCRAYPWGAGAPWLVQWYDGAGTKVEIKGGGGSGGGGSGGGGS[human IgG1 Fc with changes cut from this listing]
notes: also called B1G1 hFc (S252C)
Regarding B4, in test [6], binding was characterised by a dissociation constant (Kd) of 11.8 nM, the koff came out at 0.00266 s⁻¹ and the kon stood at 240000 M⁻¹ s⁻¹.

B5: B1G2-hFc (Fc fusion)
chain: TRVDQSPSSLSASVGDRVTITCVLTGANYGLASTYWYRKNPGSSNQERISISGRYSESVNKRTMSFTLTISSLQPEDSATYYCRAYPWGAGAPWLVQWYDGAGTKVEIKGGGGSGGGGSGGGGS[human IgG1 Fc with changes cut from this listing]
notes: also called B1G2 hFc (S252C)
On to B5, for which, in test [6], the Kd stood at 2.55 nM, the koff was 0.00141 s⁻¹ and the kon is 626000 M⁻¹ s⁻¹.
